Test results reported in patent US20260250410A1, “ANTIBODY AND USE THEREOF” (SICHUAN HUIYU PHARMACEUTICAL CO., LTD., priority 2022, published 2026).

B1: 5B8: anti-CDCP1 murine monoclonal antibody (hybridoma); VH SEQ ID NO: 252, VL SEQ ID NO: 302 (antibody, V domains shown)
VH: EVQLKESGGGLVQPGGSLRISCATSGLTFTHYHMSWVRQPPGKAPEWLAIIRNKAYGYTTDYSASVRGRFTISRDDSQSILYLQMNTLRAEDSATYYCVREGGYGYDGTFAYWGQGTTVTVSS
VL: EIVLTQSPASLAVSLGQRATISCRASESVDNYGISFMSWFQQKPGQPPKLLIYAASNQGSGVPDRFSGSGSGTDFSLNIHPMEEDDTAMYFCQQSKEVPRTFGGGTKLEIK
modifications: 5B8 heavy chain variable region; 5B8 light chain variable region
B2: 8C9: anti-CDCP1 murine monoclonal antibody (hybridoma); VH SEQ ID NO: 254, VL SEQ ID NO: 304 (antibody, V domains shown)
VH: B1 VH with A90P
VL: B1 VL with E1D, V3Q, L4M, S38N
modifications: 8C9 heavy chain variable region; 8C9 light chain variable region
B3: 20G4: anti-CDCP1 murine monoclonal antibody (hybridoma); VH SEQ ID NO: 246, VL SEQ ID NO: 297 (antibody, V domains shown)
VH: EVQLKESGPGLVKPSQSLSLTCSVTGYSITSGYYWNWIRQFPGNKLDWMGYITYDDSHYYNPSLKDRLSITRDTSKNQFFLKLNSVTAEDTATYFCARGNYYANYPHAMDYWGQGTTVTVSS
VL: EIVITQSPASLAVSLGQRASISCRASESVDHNGISFMNWFQQKPGQPPKLLIYAASNQGSGVPARFSGSGSRTDFSLSIHPMEEDDTAIYFCQQNKEVPWTFGGGTKLEIK
modifications: 20G4 heavy chain variable region; 20G4 light chain variable region
B4: 27D11: anti-CDCP1 murine monoclonal antibody (hybridoma); VH SEQ ID NO: 247, VL SEQ ID NO: 298 (antibody, V domains shown)
VH: B3 VH with Q3T, D66H
VL: B3 VL with E1D, I4M, S20T, H31N, N32S, I89M
modifications: 27D11 heavy chain variable region; 27D11 light chain variable region
B5: 3B12H9: anti-CDCP1 murine monoclonal antibody (hybridoma); VH SEQ ID NO: 239, VL SEQ ID NO: 289 (antibody, V domains shown)
VH: EVQLQQSGTVLARPGASVKMSCKASGYSFTIYWVHWVKQRPGQGLEWIGAVYPGNDDTSYNQNFKGKAKLTAVTSATTAYMELSSLTIDDSAVYYCTRHTYDEVFDYWGQGTTVTVSS
VL: EIVLTQSPLTLSVTIGQPASISCKSSQSLLDSDGKTYLNWLLQRPGQSPKRLIYLVSKLDSGVPDRFTGSGSGTDFTLKISRVEAEDLGVYYCWQGTHFPWTFGGGTKLEIK
modifications: 3B12H9/3B12H5 heavy chain variable region; 3B12H9 light chain variable region
B6: 4B7: anti-CDCP1 murine monoclonal antibody (hybridoma); VH SEQ ID NO: 253, VL SEQ ID NO: 303 (antibody, V domains shown)
VH: B1 VH with K5Q, E6Q, I20L, H31Y, D61E, R67K, A90T, V99A
VL: DVVMTQTPASLAVSLGQRATIS[left out - about 80 residues]FGGGTKLEIK
modifications: 4B7 heavy chain variable region; 4B7 light chain variable region
B7: 27A3: anti-CDCP1 murine monoclonal antibody (hybridoma); VH SEQ ID NO: 259, VL SEQ ID NO: 309 (antibody, V domains shown)
VH: EVQLKESGPELKKPGETVKISCKASGYTFTYYSMHWVKQTPGKGLKWMGWINTETGEPTYADDFKGRFAFSLETSDSTAYLQINNLKNEDTATYFCANAMDYWGQGTTVTVSS
VL: B5 VL with E1D, L4M, S7T, W101H
modifications: 27A3 heavy chain variable region; 27A3 light chain variable region
B8: 19F7D6: anti-CDCP1 murine monoclonal antibody (hybridoma); VH SEQ ID NO: 250, VL SEQ ID NO: 300 (antibody, V domains shown)
VH: EVKLVESGGGLVKPGGSLKLSCAASGFTFSTYTMSWVRQTPEKRLEWVATISSGGIYTYYPDSVKGRFTISRDNAKDTLYLQMSSLRSEDTAVYYCSSPHSYAISYGYFDYWGQGTTVTVSS
VL: B5 VL with E1D, L4M, V13I, K24R, S32I, K58E, R82G, V90I, W101Y
modifications: 19F7D6 heavy chain variable region; 19F7D6 light chain variable region

System: MDA-MB-231 cells
Assay: Endocytosis capacity of murine monoclonal antibody (flow cytometry internalization)
Assay type: cell-based, human
Settings: MDA-MB-231, 0.5 h at 37° C., antibody 1.5 μg/mL
Protocol: (§1) The endocytosis capacity of the antibody was detected for 0.5 to 2 hours. MDA-MB-231 and PC3 cells were subjected to digestion with 5 mM EDTA, and plated at 4×10^4 cells/well after cell counting. After adding an Fc blocker (Human TruStain FcX™, Biolegend, 422302) and blocking at room temperature for 10 mins, a test antibody (1.5 μg/mL) was added, and the mixture was incubated at 4° C. for 30 mins, centrifuged, and washed twice with PBS+2% FBS, then the cells were divided into four equal portions (labeled as 0 h, 0.5 h, 1 h, 2 h), cells labeled as 0.5 h, 1 h, 2 h time points were added to a cell culture medium at 200 µL/well, and cultured at 37° C. for 0.5 h, 1 h, 2 h, respectively. Cells at 0 h point were centrifuged to remove supernatant, a secondary antibody (PE anti-human IgG Fc Antibody, Biolegend, 410708) was added, and the mixture was incubated at 4° C. for 30 mins, centrifuged, and washed twice with PBS+2% FBS, and detection was performed using a flow cytometer. After incubation of cells labeled as 0.5 h, 1 h, and 2 h points at 37° C. was completed, a secondary antibody was added (in the same steps as those at 0 h point), Geo-MFI of the signal under the same voltage was collected as detection signal at 0 h, and antibody internalization rate was calculated according to the following equation: Internalization (%)=(Geo-MFI (0 h)-Geo-MFI (0.5, 1, 2 h))/Geo-MFI (0 h)×100%.

Row | Molecule | Internalization MDA-MB-231 (%) 0.5 h
1 | B1 | 24.06%
2 | B2 | 26.56%
3 | B3 | 84.77%
4 | B4 | 76.41%
5 | B5 | 0.00%
6 | B6 | 18.01%
7 | B7 | 93.40%

Same assay, conditions: MDA-MB-231, 1 h at 37° C., antibody 1.5 μg/mL

Row | Molecule | Internalization MDA-MB-231 (%) 1 h
8 | B1 | 32.99%
9 | B2 | 37.08%
10 | B3 | 91.47%
11 | B4 | 82.73%
12 | B5 | 0.00%
13 | B6 | 27.41%
14 | B7 | 90.57%

Same assay, conditions: MDA-MB-231, 2 h at 37° C., antibody 1.5 μg/mL

Row | Molecule | Internalization MDA-MB-231 (%) 2 h
15 | B8 | 63.32%
16 | B1 | 50.21%
17 | B2 | 51.59%
18 | B3 | 95.13%
19 | B4 | 89.16%
20 | B5 | 0.00%
21 | B6 | 48.49%
22 | B7 | 98.74%

System: PC3 cells
Assay: as above
Assay type: cell-based, human
Settings: PC3, 0.5 h at 37° C., antibody 1.5 μg/mL
Protocol: as §1

Row | Molecule | Internalization PC3 (%) 0.5 h
23 | B1 | 28.18%
24 | B2 | 24.63%
25 | B3 | 78.02%
26 | B4 | 76.08%
27 | B5 | 0.00%
28 | B6 | 14.05%
29 | B7 | 90.84%

Same assay, conditions: PC3, 1 h at 37° C., antibody 1.5 μg/mL

Row | Molecule | Internalization PC3 (%) 1 h
30 | B1 | 40.11%
31 | B2 | 39.13%
32 | B3 | 87.36%
33 | B4 | 83.52%
34 | B5 | 0.00%
35 | B6 | 31.25%
36 | B7 | 94.04%

Same assay, conditions: PC3, 2 h at 37° C., antibody 1.5 μg/mL

Row | Molecule | Internalization PC3 (%) 2 h
37 | B8 | 64.51%
38 | B1 | 54.90%
39 | B2 | 56.20%
40 | B3 | 94.46%
41 | B4 | 88.25%
42 | B5 | 0.00%
43 | B6 | 49.70%
44 | B7 | 96.12%

System: MDA-MB-231 cells
Assay: Transwell tumor cell migration experiment
Assay type: cell-based, human
Settings: MDA-MB-231, antibody 10 μg/ml
Protocol: In order to determine the effect of antibodies on tumor cell metastasis, the migration ability of tumor cells was examined in this study according to a transwell experiment. The specific cell migration experiment involved culturing and collecting MDA-MB-231 cells, washing them once with PBS, adjusting the density to 8×10^5 cells/mL, adding the antibody to be tested to the cells such that the working concentration thereof was 10 μg/ml, co-incubating for 30 mins, adding a cell suspension to the upper chamber of the transwell chamber, placing the transwell chamber in the incubator for 12-48 h, then removing the chamber (transwell chamber, to examine cell migration ability), immobilizing the cells, staining the cells with crystal violet for 15 mins, washing, air drying, mounting, and taking photos of 4-5 fields of view under a microscope, and counting the number or area of the stained cells using imageJ analysis software, the number or area was used as the basis for determining tumor cell migration.

Row | Molecule | effect on tumor cell migration (transwell, FIG. 4c)
45 | B1 | better capability to inhibit tumor cell migration than SEQ135
46 | B2 | better capability to inhibit tumor cell migration than SEQ135

System: MDA-MB-231 cells
Assay: Effect of antibody on tumor cell proliferation (CellTiter-Glo)
Assay type: cell-based, human
Settings: MDA-MB-231, 96 h
Protocol: (§2) 3000 cells (breast cancer MDA-MB-231, prostate cancer PC-3 cells)/well were plated onto 96-well plates overnight, an antibody at a final concentration of 500 nM to 0.00128 nM (100 nM to 0.000256 nM, 100, 20, 4, 0.8, 0.16, 0.032, 0.0064, 0.00128, 0.000256 nM, respectively) was added; after a 5-fold dilution across 9 concentration points and culturing in a CO2 incubator at 37° C. for 96 h, half of the medium (100 μL) was discarded, and 100 μL of CellTiter-Glo Luminescent Cell Viability assay reagent (Promega, cat #G7570) was added to detect signal values on a BMG microplate reader. The inhibition of antibody on tumor cell growth was calculated by graphpad fitting based on the signal value and antibody concentration.

Row | Molecule | effect on tumor cell growth (FIG. 4a)
47 | B8 | did not exhibit an effect on tumor cell growth
48 | B1 | did not exhibit an effect on tumor cell growth
49 | B2 | did not exhibit an effect on tumor cell growth

System: PC-3 cells
Assay: as above
Assay type: cell-based, human
Settings: PC-3, 96 h
Protocol: as §2

Row | Molecule | effect on tumor cell growth (FIG. 4b)
50 | B8 | did not exhibit an effect on tumor cell growth
51 | B1 | did not exhibit an effect on tumor cell growth
52 | B2 | did not exhibit an effect on tumor cell growth

Positions count from the first letter of the chain named.
